Sequences with one replicate were seen in a single cluster, so their values are uncertain.
Tested on: ATP
Assay: switch fluorescence ratio, 500 uM ATP over buffer (Cy3 cluster intensity, sum of 5 cycles each) (fold (ratio)); higher = stronger signal-on switching upon ATP binding; sequences stand for … in TCGTCGGCAGCGTCAGATGTGTATAAGAGACAGTTTTTTTTTTTTTTTTTTTTTTTTT…TC
Conditions: aptamer strand: ATP DNA aptamer (quencher-CACCTGGGGGAGTATTGCGGAGGAAGG + anchor), 100 nM annealed; ATP concentration: 500 uM; one replicate
Outline: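 Switching-strand clusters labelled with Cy3 on a modified Illumina MiSeq flow-cell were annealed to 100 nM quencher-labelled ATP aptamer, imaged in selection buffer, and re-imaged after 15 min with 500 uM ATP at 22 °C. This was done over five cycles with NaOH stripping and re-annealing in between. The fluorescence ratio is summed target-cycle over summed buffer-cycle Cy3 intensity per cluster, averaged per switch-domain sequence, excluding clusters outside 100-1000 RFU.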
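Further: ATP exposure 15 min at 22 °C before imaging.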

Sequence	switch fluorescence ratio
AGTAAGTTGT	1.01
GAAGACTTTA	1.02
AAACCTTGTG	1.03
CATTGTGGGG	0.99
CGCTGTGGGT	0.984
TTCCTGGCTA	1.16
CAGTCCCGTG	1.03
ACGGGCATAC	6.23
GGTTCGCGGC	1.06
TAAAACATAT	0.988
ACTAGACTCG	0.992
CTTATGCAGA	1.06
TAAAAGCGTG	0.984
GGAAGTTAGG	0.982
GCGAGGGACT	1.01
CACCTCCGCC	5.31
TTCGGTAGTA	0.985
CATTAGAGAA	1.02
GCCTGCGTGC	1.01
AGACAGTTTA	1
AGATTATAAA	1.01
AACTTTTATA	0.999
GTAATCGTAC	1.12

Sequence	switch fluorescence ratio
ATTGGAGCCG	1.04
GGAGGTTTTT	0.965
GGAGTTTTCA	0.979
TGAGGCTGA	1
AGACCTGATG	1
AGAAGCTATC	1.26
GTCAGTAACG	1.01
TTGGTGAGAC	1.09
TGGCAGAAAC	1.02
ATCATTCTGT	1.04
ATCGGCAATG	1.79
TACTTACGCC	1.27
GATGGCGCTT	0.962
AATCTGGTTT	1.01
TTCGAACTTC	1
GACTCCATGG	1.12
ATGCAATTCA	1.08
GGTGACGTCG	1.06
GGGTCTGTGA	0.962
CGTCTTACTG	1.05
GTCACTAGGG	1
CGTGGCACGG	0.988
TCTAGAAGAT	0.974

Sequence	switch fluorescence ratio
ACTAGGTTTG	1.07
ACCTATATGC	1.31
TCTTGGGGAA	0.985
CACCGGTCTG	1.03
GGAGATCAGA	0.973
AGTGGGTGGT	0.984
GGGTGATACA	0.965
AGACTAGGAG	0.998
CTGCTCGGAC	1.22
TATGCTGGGA	1.02
GCGGCTATTA	0.952
CGCCTGAGAT	0.999
CGCCTGAGAG	1.02
GCGAATTTCG	1.01
CGGCAAATTA	1.04
AAGCCGGGCG	1.12
CTCAGGCATA	2.07
TACTCACGGA	1.36
GGTGAAGTA	0.937
CCGCGGGCGT	1.23
TCTGGCCCTT	1.02
GCGGACTAAG	1.04
CAGTCCCTTC	1.05

Sequence	switch fluorescence ratio
ATCAAGTGTT	0.961
ATGCCAGCTG	0.978
ATCACTTCTG	1.03
GACTCAAAGC	1.26
TCGGGTGACG	1.12
TTAAGGCATC	1.05
AGCAGGTAAC	1.16
GCTTCTCAAT	1.23
CGATATGCAA	1.65
CGTACCTCAC	1.5
TGCAGGGTCA	1.01
GTTGGCCGGT	0.924
GGAGATCTAG	1.05
GGCAATGTCA	1
CCAGAGAAGT	1.03
AACCCTATCC	1.6
ATAGTGTTTT	0.987
AGAGAATAGT	0.929
ATTCTAATTG	0.974
CCCCCGAAGG	1.35
TTAGTCAGTG	1.03
AGTAAAACGG	1.03
CAGATCCGAC	1.1

Sequence	switch fluorescence ratio
CTAAAGGTTG	0.972
GGTTATTGCC	1.06
TATTAATAG	0.997
AGATTCCCCT	1.1
AATATATGAT	0.949
TTTAGAGAA	0.94
TGAGAATGT	1.03
CCCACGTGTA	1.22
ATAATCCATC	0.977
GATTTTCGGG	0.991
CCAGGCGCGC	0.99
AATTCAAGTT	1.01
TCGAAGGAGA	1.02
GTTCGGGTAC	1.05
CAGTTTTCGT	1.03
GGTCATTGCG	1.01
GGGTGCTCGA	1.01
TCAGGAACCA	1
GAGCCCATCA	1.03
TGGGCAACTT	0.983
CTCGCCACGG	1.16
ATGGAGGTTC	1.02
CAAACCCCTG	1.04

Sequence	switch fluorescence ratio
CGGGCAACGA	1.06
CCCGTCCAGT	1.06
TAGAACGTTG	1
ACCTATTCCG	1.2
ATTGATACTC	1.03
ATGGGTCATG	0.958
TGTAAATATA	0.983
TGTTGTCCCG	0.976
AATACTTAGC	1.05
AGCTGGGTAT	1.03
TCTGAACGTC	1.11
TGTTCCTGGG	1.05
CCAGGGCCCG	1.03
CTATCCGCA	1.83
GAATCTTTGA	0.991
TCTGTGCGTT	1.05
CGGAGTAAAA	1.05
GTCTTACTTG	0.98
ATCACGCACG	1.64
CCTTTTAGTG	1.03
CAGTATAGTA	0.969
AGCCTTGGAC	0.991
ACTGACCGCG	1.01

Sequence	switch fluorescence ratio
CTCCCCTTTG	1.41
CTGTACTATG	0.977
ACCGGCAAGT	1.13
AAAGGTTCCT	1.01
TATAGCGCGT	1.02
TCATTACTAT	0.987
ATAGTGGGG	0.937
AGGCAAACGT	1.06
GTGAAGGGAA	0.953
TATCAGTATG	0.993
CTCGTGTTGT	0.945
CGGCGCAAAT	4.92
ATAAAGGGAA	1.03
AGTCCAATGG	1.05
GGAATGGTT	1.05
TTGACATTGA	0.967
TCACCTTAGT	1
CAGGAGGGTC	0.933
GCGACTCAAC	1.85

— the supplement of paper PMC10126150
